T1: human EpCAM expressed on cells (stably transfected CHO cells, HCT-116, JIMT1) (human, UniProt P16422 24-314)
T1 construct: also called Human EpCAM (CHO); Human EpCAM (HCT-116)
T1 sequence: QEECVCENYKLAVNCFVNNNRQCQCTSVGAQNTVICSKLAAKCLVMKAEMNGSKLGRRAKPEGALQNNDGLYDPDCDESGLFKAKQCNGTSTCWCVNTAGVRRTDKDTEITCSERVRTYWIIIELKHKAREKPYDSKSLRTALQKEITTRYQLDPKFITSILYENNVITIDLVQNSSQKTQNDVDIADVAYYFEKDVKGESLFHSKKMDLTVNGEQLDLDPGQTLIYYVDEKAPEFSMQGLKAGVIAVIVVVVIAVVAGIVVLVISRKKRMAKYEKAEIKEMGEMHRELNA

T2: human EpCAM protein adsorbed on the plate (ELISA) (human, UniProt P16422 24-265)
T2 construct: also called Human EpCAM (ELISA); recombinant human EpCAM extracellular domain (ECD)
T2 sequence: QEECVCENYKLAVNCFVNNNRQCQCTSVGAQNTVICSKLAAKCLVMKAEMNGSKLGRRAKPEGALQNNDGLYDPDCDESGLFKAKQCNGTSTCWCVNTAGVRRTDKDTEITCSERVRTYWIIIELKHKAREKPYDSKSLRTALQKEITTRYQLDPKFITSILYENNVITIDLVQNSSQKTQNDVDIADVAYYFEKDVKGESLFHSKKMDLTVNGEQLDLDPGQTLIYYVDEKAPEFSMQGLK

T3: human EpCAM-His (analyte of the Biacore experiments) (human, UniProt P16422 24-265)
T3 construct: also called Human EpCAM (Biacore); hEpCAM
T3 sequence: T2 sequence

T4: cynomolgus EpCAM protein adsorbed on the plate (ELISA) (cynomolgus monkey, UniProt Q1WER1 26-265 (rhesus entry), limits assumed)
T4 construct: Construct used for the cyno ELISA is not described; also called Cyno EpCAM (ELISA); cEpCAM
T4 sequence: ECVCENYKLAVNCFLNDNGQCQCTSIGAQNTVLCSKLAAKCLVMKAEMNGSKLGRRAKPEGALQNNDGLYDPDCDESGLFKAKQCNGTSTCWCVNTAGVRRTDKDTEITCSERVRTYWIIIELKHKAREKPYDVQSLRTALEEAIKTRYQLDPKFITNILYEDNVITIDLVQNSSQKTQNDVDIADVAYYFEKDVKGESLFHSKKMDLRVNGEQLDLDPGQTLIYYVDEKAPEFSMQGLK

B1: SRP1464-A02 scFv-Fc antibody (Fc fusion)
chain: MEVQLLESGGGLVQPGGSLRLSCAASGFTFGVESMSWVRQAPGKGLEWVGAIDGGDGYTGYADSVKDRFTISRDNSKNTLYLQMNSLRAEDTAVYYCAKAWHPQTYYGVDYWGQGTLVTVSSGGGGSGGGGSGGGGSEIVLTQSPGTLSLSPGERATLSCRASQSVSSSYLAWYQQKPGQAPRLLIYGASSRATGIPDRFSGSGSGTDFTLTISRLEPEDFAVYYCQQTSEAPPTFGQGTKVEIKAAGSDQ[letters of human IgG1 Fc with changes omitted]GSGDYKDDDDKGSGHHHHHH
notes: scFv-Fc format; the entry holds scFv, IgG1 Fc, FLAG and His tags
B2: SRP1464-B04 scFv-Fc antibody (Fc fusion)
chain: MEVQLLESGGGLVQPGGSLRLSCAASGFTFSGSSMSWVRQAPGKGLEWVGAIDGGEGYTSYADSVKGRFTISRDNSKNTLYLQMNSLRAEDTAVYYCAKGWHPQTLYDLDYWGQGTLVTVSSGGGGSGGGGSGGGGSEIVLTQSPGTLSLSPGERATLSCRASQSVSSSYLAWYQQKPGQAPRLLIYGASSRATGIPDRFSGSGSGTDFTLTISRLEPEDFAVYYCQQLVTSPPTFGQGTKVEIKAAGSDQ[letters of human IgG1 Fc with changes omitted]GSGDYKDDDDKGSGHHHHHH
notes: as for B1
B3: SRP1464-A08 scFv-Fc antibody (Fc fusion)
chain: MEVQLLESGGGLVQPGGSLRLSCAASGFTFSGSSMSWVRQAPGKGLEWVGAIAGGDGYTGYADSVKGRFTISRDNSKNTLYLQMNSLRAEDTAVYYCAKGWHRQDYYGQDYWGQGTLVTVSSGGGGSGGGGSGGGGSEIVLTQSPGTLSLSPGERATLGCRASQSVSSSYLAWYQQKPGQAPRLLIYGASSRATGIPDRFSGSGSGTDFTLTISRLEPEDFAVYYCQQNQAAPATFGQGTKVEIKAAGSDQ[letters of human IgG1 Fc with changes omitted]GSGDYKDDDDKGSGHHHHHH
notes: as for B1

How the values were obtained:
[1] = target: T1, human EpCAM expressed on cells (stably …); experiment: flow cytometry, JIMT1 cells
Experimental: (§1) CHO-k cells were transfected to stably express EpCAM on the cell surface. CHO parental and stably transfected CHO-EpCAM (human, cynomolgus and mouse EpCAM-expressing cells) cells were washed with DPBS, detached with Accutase™ (BD Biosciences; San Jose, Calif.), and resuspended in ice-cold FACS buffer (DPBS buffer supplemented with 0.5% bovine serum albumin).
(§2) A total of 200,000 cells per 96-well were incubated on ice for 60 mins with 100 nM of test antibodies diluted in FACS buffer. Cells were washed twice with FACS buffer and incubated on ice for 30 mins with R-phycoerythrin AffiniPure F(ab′)₂ fragment, goat anti-Human IgG, Fcγ fragment specific secondary detection antibody (Jackson ImmunoResearch Laboratories, West Grove, Pa.) diluted at 1:200 with FACS buffer. Cells were washed twice with FACS buffer, fixed in 4% paraformaldehyde in PBS (Santa Cruz Biotechnology; Dallas, Tex.) for 20 mins on ice in the dark, washed twice with FACS buffer and analyzed using the BD LSR II Flow Cytometer (BD Biosciences; San Jose, Calif.). Data were analyzed using FlowJo (FlowJo, LLC; Ashland, Oreg.) to determine mean fluorescence intensities. Binding constants were calculated using the statistical software, GraphPad Prism (GraphPad Software; La Jolla, Calif.) using the nonlinear regression equation, one site-specific binding with Hill slope. Secondary antibody alone was used as a control, in addition to measuring non-specific EpCAM antibody binding to CHO parental cells. For some variants, binding to human tumor cells, HCT 116 and JIMT1 cells were also evaluated.

[2] = target: T1, human EpCAM expressed on cells (stably …); experiment: flow cytometry, HCT-116 cells
Experimental: as §1, §2

[3] = target: T1, human EpCAM expressed on cells (stably …); experiment: flow cytometry, CHO cells expressing human EpCAM
[4] = target: T2, human EpCAM protein adsorbed on the …; experiment: ELISA, human EpCAM adsorbed on plate, anti-human Fc-HRP
Excerpt: (§3) The “EC₅₀” value is the concentration of the antibody at which half-maximum signal is achieved in an ELISA assay where EpCAM protein is adsorbed onto a plate and then bound by the respective antibody provided herein. The anti-EpCAM antibody is detected with horseradish peroxidase (HRP)-conjugated anti-human Fc antibody.

[5] = target: T3, human EpCAM-His (analyte of the Biacore …); experiment: SPR (Biacore), scFv-Fc captured on anti-FLAG, human EpCAM-His as analyte, 25 C
In short: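 Anti-FLAG-captured scFv-Fc antibodies probed by Biacore at 25 °C in HBS-EP+; EpCAM-His flowed at 50, 25, 12.5, 6.25 and 0 nM (180 s association, 600 s dissociation, 50 μl/min), glycine pH 2.0 regeneration. KD from ratio of rate constants via 1:1 Langmuir fit.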

[6] = target: T4, cynomolgus EpCAM protein adsorbed on …; experiment: ELISA, cyno EpCAM adsorbed on plate, anti-human Fc-HRP
Excerpt: as §3

Binder | Kd [1] [nM] | Kd [2] [nM] | Kd [3] [nM] | EC50 [4] [nM] | Kd [5] [nM] | koff [5] [s⁻¹] | kon [5] [M⁻¹ s⁻¹] | EC50 [6] [nM]
B1 | 5.2 | 6.7 | 2.6 | 0.009 | 0.983 | 0.000197 | 200000 | –
B2 | 7.6 | 6.9 | 2 | 0.39 | 3.93 | 0.000256 | 65200 | 16.2
B3 | 2.7 | 3.6 | 1.2 | 0.39 | 0.193 | 1.74e-05 | 90300 | –

Source: patent US20190002581A1 (SUTRO BIOPHARMA, published 2019)
